PubChem BioAssay AID1159614 (National Center for Advancing Translational Sciences (NCATS), 2016)
In all, about 45,000 compounds went through this assay and about 65 (0.1%) were called active. Calls come from the whole dose curve; as a rule, active = well fitted activation curve with a large enough effect; inconclusive = small, poorly fitted or top-dose-only effect; inactive = no such curve, though single readings can be large or run the other way. The list shows a part of the results.

biological target: Galactocerebrosidase (Homo sapiens) (UniProt P54803); assay: A Novel Cell-Based Assay to Identify Small Molecules for B -Galactocerebrosidase; details: 145M-Twi-hGALC-G270D cells (Twitcher mouse brain line with human GALC G270D), HMU-beta-Gal fluorescence, 48 h; series mostly up to 57.5 µM; activation: at the top concentration; note: 0% is about no effect; nearly all actives have a fitted effect of over 65% in size
In short: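 Brain-derived Twitcher mouse 145M-Twi cells stably expressing human GALC-G270D or wild-type GALC, treated live, then residual GALC activity read by fluorescence of HMU-b-Gal substrate (0.1 mM final) in citrate-phosphate buffer pH 5.2 with sodium taurocholate. Signal increase indicates enhancement.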

Sequence of UniProt P54803 (P54803 whole entry, looked up): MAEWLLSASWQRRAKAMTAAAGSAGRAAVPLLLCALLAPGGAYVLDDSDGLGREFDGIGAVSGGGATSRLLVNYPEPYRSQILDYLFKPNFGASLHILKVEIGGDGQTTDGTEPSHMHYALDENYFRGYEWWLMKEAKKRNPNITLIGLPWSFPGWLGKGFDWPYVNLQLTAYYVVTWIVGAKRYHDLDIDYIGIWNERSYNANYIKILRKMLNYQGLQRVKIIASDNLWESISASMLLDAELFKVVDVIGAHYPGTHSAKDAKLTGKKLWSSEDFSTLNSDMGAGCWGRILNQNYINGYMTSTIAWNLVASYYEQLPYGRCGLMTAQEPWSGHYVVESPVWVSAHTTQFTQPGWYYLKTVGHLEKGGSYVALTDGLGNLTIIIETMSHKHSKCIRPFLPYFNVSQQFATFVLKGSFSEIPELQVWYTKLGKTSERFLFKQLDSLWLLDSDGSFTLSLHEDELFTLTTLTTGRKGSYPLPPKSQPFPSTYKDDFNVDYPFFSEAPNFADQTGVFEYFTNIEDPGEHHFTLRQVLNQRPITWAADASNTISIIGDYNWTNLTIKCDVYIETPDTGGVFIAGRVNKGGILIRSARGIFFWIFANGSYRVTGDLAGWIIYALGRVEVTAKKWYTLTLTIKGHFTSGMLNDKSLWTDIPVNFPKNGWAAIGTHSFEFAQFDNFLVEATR

Row | SMILES | activation
1 | Nc1c(CC(=O)O)cccc1C(=O)c1ccc(Br)cc1 | inactive: -13.1%
2 | COc1ccccc1NC(=O)CSC1=Nc2ccccc2C2=NC(CC(=O)NCc3cccs3)C(=O)N12 (stereo not given) | inactive: -9.89%
3 | COc1ccc(CCNC(=O)c2ccc3c(c2)N(Cc2ccccc2C)C(=O)c2ccccc2S3)cc1OC | inactive: -18%
4 | Cc1cc(C)cc(NC(=O)Cn2c(C(F)(F)F)nc3ccccc32)c1 | inactive: -4.38%
5 | Cc1oc(-c2cccc(Cl)c2)nc1Cn1c(SCc2ccccc2F)nc2ccncc21 | inactive: -17.8%
6 | COc1ccc(-n2ncc(C(=O)N3CCOCC3)c2C2CCN(C(=O)OC(C)(C)C)CC2)cc1 | inactive: -6.49%
7 | CCCCS(=O)(=O)c1nc(-c2ccc(Br)cc2)cc(-c2ccccc2)c1C#N | inactive: -25.6%
8 | N#Cc1ccccc1NC(=O)CSc1nnc(N)s1 | inactive: -2.13%
9 | COc1ccc(CNC(=O)c2cnc(N3CCOCC3)c3ccccc23)cc1 | inactive: -5.54%
10 | COc1ccc(NC(=O)CSc2nc(-c3ccco3)cc(C(F)(F)F)n2)cc1Cl | inactive: -19%
11 | CCCN(CCC)C(=O)Cn1c(=O)n(-c2ccc(Cl)cc2)c(=O)c2c3c(sc21)CCCC3 | inactive: 0.947%
12 | Fc1ccc(-c2cn3cc(Cc4ccccc4)sc3n2)cc1 | inactive: -25.4%
13 | CCc1ccc2oc(-c3cc(NC(=O)c4cc([N+](=O)[O-])ccc4N4CCOCC4)ccc3Cl)nc2c1 | inactive: -11.2%
14 | Cc1ccc(Cl)cc1N1CCN(C(=O)c2cc3c(-c4ccccc4F)nn(C)c3s2)CC1 | inactive: -7.59%
15 | CC1CCc2c(sc3nnn(CC(=O)Nc4ccc(Cl)cc4)c(=O)c23)C1 (stereo not given) | inactive: -15.7%
16 | Cc1ccc(N2CCN(S(=O)(=O)c3ccc4[nH]c5c(c4c3)CCCCC5)CC2)c(C)c1 | inactive: -30.9%
17 | CCN(C(=O)c1cn(CC)c(=O)c2cc(OC)c(OC)cc12)c1ccc(C)c(C)c1 | inactive: 4.92%
18 | C[C@@H]1CC[C@@]2(OC1)O[C@H]1C[C@H]3[C@@H]4CC[C@H]5C[C@@H](O)CC[C@]5(C)[C@H]4CC(=O)[C@]3(C)[C@H]1[C@@H]2C | inactive: -8.82% [at 5.77 µM]
19 | Cn1c(=O)c2sccc2n2c(CCCC(=O)NCc3ccccc3)nnc12 | inactive: 4.81%
20 | O=C1COc2ccc(-c3cc(-c4ccccc4)c4c(n3)-c3cc(Cl)ccc3OC4)cc2N1 | inactive: -3.69%
21 | Cc1cccc(NC(=O)CCc2c(C)nc3c(c(C)nn3C(C)(C)C)c2C)c1C | inactive: 3.61%
22 | O=C(Nc1ccc(F)cc1)N1CCN(C(=O)c2nsc3ccccc23)CC1 | inactive: -2.13%
23 | COC(=O)c1cc2occc2n1CC(=O)Nc1ccc(C(C)C)cc1 | inactive: -25.6%
24 | COc1cccc(-n2nnc(-c3nc(-c4ccccc4F)no3)c2C)c1 | inactive: -10.1%
25 | CCSc1nn(CC(=O)Nc2ccc(C(=O)OC)cc2)c(N)c1S(=O)(=O)c1ccc(C)cc1 | inactive: -3.82%
